# Results reported in the supplement of paper PMC4166925.
# ± gives the standard deviation of the averaged measurements. In all, about 33,000 sequences were measured (“E-score (dimensionless, -0.5 to 0.5)”: median about -0.046, highest 2% from about 0.36 on). The list shows a part of the results.
# Test system: T1, SpTbr T-box DNA-binding domain (GST fusion)
# T1 sequence: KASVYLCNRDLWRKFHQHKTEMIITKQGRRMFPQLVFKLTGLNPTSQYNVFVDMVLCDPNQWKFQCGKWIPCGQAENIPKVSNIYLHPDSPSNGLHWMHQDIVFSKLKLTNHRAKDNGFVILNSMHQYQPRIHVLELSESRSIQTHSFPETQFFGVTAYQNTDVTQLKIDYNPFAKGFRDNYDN
# Assay: PBM E-score of 8-mer (E-score (dimensionless, -0.5 to 0.5)); Tbr is Tbrain of the sea star Patiria miniata (Pm) or the sea urchin Strongylocentrotus purpuratus (Sp); higher = stronger binding preference; most listed sequences are background and not binding sites
# Conditions: the construct has about 5 more residues each side
# Method in brief: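 Each ungapped 8-mer received an enrichment E-score from the Universal PBM Analysis Suite, averaged over duplicate arrays. The proteins were Tbr T-box DNA-binding domains, covering the whole T-box plus about five flanking residues, fused to GST and expressed in BL21 E. coli at 20 °C before glutathione affinity purification. Universal Agilent oligonucleotide arrays were made double-stranded by primer extension and incubated with 200 nM protein in PBS (pH 7.5). The arrays were then scanned and quantified, and every 8-mer was scored from probe intensities.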
row,Sequence,PBM E-score of 8-mer
1,AGGCCCGA,-0.0946 ± 0.054
2,ATTTATCA,-0.0292 ± 0.12
3,ACGAAAGA,-0.0823 ± 0.0021
4,ATGACGCG,0.145 ± 0.033
5,CTCACTTA,0.306 ± 0.033
6,CGCCCTAG,-0.151 ± 0.0084
7,AACTGTCC,-0.0916 ± 0.0089
8,CACGTGGA,0.132 ± 0.0022
9,TTGAACAA,-0.066 ± 0.026
10,AAAGTGTA,0.112 ± 0.073
11,TCGCTTAA,-0.00898 ± 0.0036
12,AGACCGTA,-0.166 ± 0.1
13,CCCGGCAG,-0.0933 ± 0.0064
14,CAAGGATC,-0.0265 ± 0.013
15,ACTAGATC,-0.264 ± 0.048
16,ATGCGTGG,0.169 ± 0.069
17,ACCTAACG,0.11 ± 0.09
18,ATCCGTGA,0.156 ± 0.016
19,ATCTAAGG,-0.138 ± 0.047
20,GACCTCGA,-0.0589 ± 0.014
21,ACCGAGGT,0.144 ± 0.00077
22,CGAATAAC,0.107 ± 0.0037
23,GTGTTCAA,0.152 ± 0.0097
24,GAGCCAGC,0.0706 ± 0.066
25,CCTCACCG,-0.111 ± 0.069

row,Sequence,PBM E-score of 8-mer
1,CCCCCGAC,-0.00895 ± 0.078
2,AAAGCGGC,-0.125 ± 0.0093
3,CTCTCTTA,-0.187 ± 0.034
4,CGAAGTTA,-0.166 ± 0.024
5,ACTTTAAA,-0.0537 ± 0.1
6,AGACGTGG,-0.125 ± 0.039
7,AGTGCTCA,0.0883 ± 0.015
8,CAAGCTCA,-0.0177 ± 0.053
9,AGCGGTGG,-0.058 ± 0.12
10,CGATTATA,-0.00292 ± 0.028
11,AAGTCCTC,-0.169 ± 0.0025
12,AATCCTGT,0.0714 ± 0.014
13,CTTATGAC,-0.00355 ± 0.022
14,GAATTCGA,-0.193 ± 0.0066
15,CGTTATTC,0.0891 ± 0.048
16,AGCATGTA,0.00605 ± 0.00077
17,GCTGAGAA,0.26 ± 0.048
18,GGTATACC,-0.0427 ± 0.062
19,CACCGAGC,-0.107 ± 0.096
20,GGGGACCA,-0.267 ± 0.088
21,AGTGTTCC,0.0182 ± 0.013
22,CCATGCAC,-0.0815 ± 0.021
23,ACTTTTCC,-0.0249 ± 0.025
24,ATAGAGAG,-0.0654 ± 0.037
25,TGTTGCAA,0.114 ± 0.017

row,Sequence,PBM E-score of 8-mer
1,TATGAGCA,-0.1736 ± 0.0016
2,ACGGTGAC,0.284 ± 0.0089
3,ATCGACAC,0.389 ± 0.013
4,CTTCACAA,0.32 ± 0.0058
5,ACAATGAG,-0.00655 ± 0.0029
6,CCACGCTC,0.0778 ± 0.052
7,GCGAAGTA,0.31 ± 0.035
8,ACCGGGGC,-0.0204 ± 0.065
9,CACGGTGG,0.0119 ± 0.061
10,AAGCGGAC,-0.128 ± 0.03
11,ATTCGCTG,-0.13 ± 0.03
12,AACCGCTT,-0.0779 ± 0.0043
13,ATCGGGAG,-0.07849 ± 0.00052
14,GACCGCGC,0.121 ± 0.057
15,CGAGAAAC,0.0745 ± 0.086
16,ACCAATCA,-0.0511 ± 0.01
17,GTCTTTCA,-0.0162 ± 0.053
18,ACAGACAT,0.0887 ± 0.022
19,ACGTTTGC,0.0266 ± 0.034
20,TACCATGA,-0.164 ± 0.056
21,AGGGCCCG,-0.185 ± 0.032
22,CTGATAAG,-0.0825 ± 0.038
23,CAATTAGC,-0.00923 ± 0.072
24,CCGTCATA,0.0436 ± 0.0011
25,ACACTTTA,0.324 ± 0.043

row,Sequence,PBM E-score of 8-mer
1,ACGTCGAT,0.0227 ± 0.016
2,ACTAACTC,-0.077 ± 0.047
3,ACTTGTCT,0.0811 ± 0.037
4,ATTCTCCA,-0.0182 ± 0.053
5,AGACGGGA,-0.0612 ± 0.086
6,CCCCCACA,-0.0123 ± 0.15
7,CCACGCCC,0.0644 ± 0.011
8,CTGCCGAC,0.108 ± 0.02
9,ACATAAAA,0.0349 ± 0.044
10,AAATCAGA,-0.217 ± 0.051
11,CAACCTGG,0.0493 ± 0.039
12,CCCCGGAA,-0.115 ± 0.052
13,ATCTTTCG,-0.0388 ± 0.014
14,AACAGTGG,0.016 ± 0.025
15,CCTACCCC,-0.191 ± 0.043
16,GATAGTAC,-0.0487 ± 0.028
17,GTGCTGGA,-0.0318 ± 0.049
18,CAGGCACA,0.166 ± 0.047
19,CTAGATGA,-0.231 ± 0.044
20,AGAGGTGC,0.394 ± 0.014
21,GAGGTTTA,-0.0525 ± 0.082
22,GTAATAAC,-0.074 ± 0.074
23,ACGCTAAC,0.253 ± 0.015
24,GCGACCGC,0.151 ± 0.04
25,ATGCCGGC,-0.17 ± 0.081

row,Sequence,PBM E-score of 8-mer
1,GCAAGATA,-0.0343 ± 0.043
2,CCTGTGGA,-0.0237 ± 0.047
3,GTAGCAGA,-0.142 ± 0.023
4,CCCCCAAC,0.0527 ± 0.0089
5,ACCCCGCG,0.21 ± 0.0021
6,AAGGAAGC,-0.0905 ± 0.043
7,TAGAACCA,-0.141 ± 0.074
8,GACGCCAC,0.196 ± 0.066
9,ATCGGACC,-0.225 ± 0.061
10,AAGCGTTA,0.161 ± 0.089
11,ATTTAGAG,-0.163 ± 0.16
12,GCCCTTCC,-0.0891 ± 0.017
13,CAATTTGC,0.0958 ± 0.14
14,ACCTCAGT,0.119 ± 0.043
15,AGTGAGTC,0.0547 ± 0.03
16,CCTCAAAG,-0.0502 ± 0.041
17,AGCAGTGA,0.013 ± 0.096
18,AGGGTCGA,-0.0496 ± 0.012
19,AACTGTCT,0.104 ± 0.0095
20,CCGTTTAG,-0.0242 ± 0.015
21,ATGGTGGA,-0.346 ± 0.005
22,GCTGGTCA,-0.00922 ± 0.032
23,ATATGCAG,0.0798 ± 0.037
24,AGTCTACA,-0.0855 ± 0.012
25,CAACTGTG,0.251 ± 0.031

row,Sequence,PBM E-score of 8-mer
1,AGGGGGCG,0.0912 ± 0.057
2,ATACTCAA,-0.179 ± 0.05
3,CTCCAACA,0.138 ± 0.023
4,CATACGAC,-0.083 ± 0.046
5,CATTAGGC,-0.0383 ± 0.089
6,AGTTCAAC,0.0179 ± 0.028
7,CATGCCGA,-0.124 ± 0.041
8,CTCTATAC,-0.255 ± 0.095
9,AGCGCTAA,0.3148 ± 0.0026
10,AAGTTAAG,-0.288 ± 0.047
11,ATTAGTGG,0.0734 ± 0.019
12,ACCGTTTA,0.00252 ± 0.042
13,CAATCCCC,-0.142 ± 0.016
14,AGACCTAA,-0.0799 ± 0.046
15,TCTAGAAA,-0.0958 ± 0.045
16,TAATACGA,-0.131 ± 0.044
17,GGACTCCC,-0.203 ± 0.009
18,AAATACAG,-0.0946 ± 0.035
19,GATATGAC,-0.0904 ± 0.026
20,AATGTGGT,0.0565 ± 0.051
21,CGGACTCA,-0.0648 ± 0.1
22,TAACAAGA,0.0533 ± 0.063
23,AATAACCC,-0.109 ± 0.11
24,ATGCAGTG,-0.038 ± 0.026
25,AATTCGCT,-0.0718 ± 0.05

row,Sequence,PBM E-score of 8-mer
1,AGCGTGAG,0.28 ± 0.05
2,ACCTTCCA,0.0669 ± 0.013
3,AGGGCTTA,-0.209 ± 0.034
4,ACGACCTA,0.0969 ± 0.063
5,CGTCACTC,0.232 ± 0.011
6,TCACGCAA,0.32 ± 0.023
7,AGGGGCTA,-0.079 ± 0.035
8,CGTGCCAA,0.306 ± 0.03
9,AGTGGTGG,0.0787 ± 0.014
10,GAGCTGTA,-0.0913 ± 0.024
11,CCCTGTTA,0.0927 ± 0.079
12,GGCGGCAC,0.203 ± 0.034
13,CATGTGCG,0.269 ± 0.025
14,AAATAAAT,-0.135 ± 0.015
15,TATAGATA,-0.198 ± 0.026
16,CTGGGTCA,-0.0604 ± 0.044
17,ATTGTAAA,0.0303 ± 0.04
18,ATTCAACG,0.00085 ± 0.022
19,ACCTATAC,0.0942 ± 0.016
20,ATGGACTC,-0.156 ± 0.017
21,GGCCTGCA,-0.247 ± 0.045
22,ATACTTAG,-0.152 ± 0.025
